In PubChem BioAssay AID624417 (National Center for Advancing Translational Sciences (NCATS), 2012):
In all, about 410,000 compounds went through this assay and about 6,400 (1.6%) were called active. Inconclusive results, whose numbers are uncertain, are shown with a selection of clear calls. Calls follow the shape of the dose curve; as a rule, active = well fitted inhibition curve with a large enough effect; inconclusive = small, poorly fitted or top-dose-only effect; inactive = no such curve, though single readings can be large or run the other way. Where the call is inconclusive, the potency comes from a doubtful curve fit.

Molecular target: Glucagon-like peptide 1 receptor (Homo sapiens) (UniProt P43220)
Experiment: qHTS of GLP-1 Receptor Inverse Agonists (Inhibition Mode); also: nearly all actives have a fitted effect of over 55% in size
Settings: HEK293 GLP-1R CRE-luciferase, luminescence, 24 h, GLP-1R form is constitutively active; activity change, negative = inhibition: at 38.3 µM (top of the series) unless noted
In short: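 Assay principle: reduced luminescence from a cAMP-responsive reporter in HEK293 cells co-expressing a constitutively active GLP-1R. Conditions: 24 hr compound incubation, 37 deg C, 5% CO2.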
% is scaled to controls: 0 for no effect and ±100 for the full control effect; potency is read from the fitted curve at half-maximal effect; tags tell the direction and shape of the fitted curve.

UniProt P43220, sequence (P43220 whole entry, looked up): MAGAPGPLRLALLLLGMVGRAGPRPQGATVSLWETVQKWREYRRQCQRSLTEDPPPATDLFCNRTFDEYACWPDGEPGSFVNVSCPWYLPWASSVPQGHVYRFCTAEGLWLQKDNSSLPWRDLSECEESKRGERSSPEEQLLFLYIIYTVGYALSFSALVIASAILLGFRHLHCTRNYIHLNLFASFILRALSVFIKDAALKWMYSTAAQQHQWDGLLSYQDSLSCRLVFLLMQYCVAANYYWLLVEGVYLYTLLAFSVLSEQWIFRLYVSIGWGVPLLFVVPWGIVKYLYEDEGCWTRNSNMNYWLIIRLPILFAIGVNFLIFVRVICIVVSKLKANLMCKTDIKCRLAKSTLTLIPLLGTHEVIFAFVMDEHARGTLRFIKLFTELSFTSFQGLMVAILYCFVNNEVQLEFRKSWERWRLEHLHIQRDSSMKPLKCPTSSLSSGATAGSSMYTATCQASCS

Potency, inconclusive:
CCOc1ccc(NC(=S)N(CCc2c(C)[nH]c3ccc(C)cc23)Cc2cccnc2)cc1 28.2 µM [inhibitor, single point]
CCCCCC/C(=N\NS(C)(=O)=O)c1ccccc1 7.94 µM [inhibitor, partial curve]
COc1ccc2c(Sc3ccc(Cl)cc3)c(C(=O)N3CCCCC3)[nH]c2c1 12.6 µM [inhibitor, partial curve, poor fit]
COc1ccc(-n2nc3c(c2NC(=O)CCl)CSC3)cc1 22.4 µM [inhibitor, single point]
COC(=O)[C@@]12C[C@@H](CC(=O)N3CCC(c4ccccc4)CC3)C(=O)N(Cc3cccc4ccccc34)C1=CCC(C)(C)C2 1 µM [inhibitor, full curve, poor fit]
CC1SC(=S)N(c2ccc(N(C)C)cc2)C1=O (stereo not drawn) 12.6 µM [inhibitor, single point]
COC(=O)c1[nH]c2cccc(Cl)c2c1NC(=O)CN(C)C1CCCCC1 12.6 µM [inhibitor, single point]
CCc1ccc(NC(=O)C2CCCN(S(=O)(=O)c3cccs3)C2)cc1 (stereo not drawn) 2.24 µM [inhibitor, full curve, poor fit]
Cc1cc(N2CCOCC2)n2ncc(-c3ccccc3)c2n1 1 µM [inhibitor, full curve, poor fit]
COc1ccccc1CNc1nc(NCCOc2ccccc2Cl)c2sccc2n1 28.2 µM [inhibitor, single point]
O=C(CC(=O)c1ccccc1)CS(=O)(=O)c1ccccc1 28.2 µM [inhibitor, single point]
O=C(NCc1ccc(F)cc1)c1ccc(CS(=O)Cc2ccccc2Cl)o1 (stereo not drawn) 8.91 µM [inhibitor, partial curve, poor fit]
COc1ccc(-c2c(-c3ccccc3OC)sc3ccccc23)cc1 10 µM [inhibitor, partial curve]
O=C(CCCSc1ccc(Cl)cc1)Nc1ccccc1O 10 µM [inhibitor, single point]
Cc1ccc(-n2nnnc2SC(C)C(=O)NCC(=O)Nc2ccc(F)c(F)c2F)c(C)c1 (stereo not drawn) 10 µM [inhibitor, partial curve, poor fit]
CN1CCN(c2ccccc2NC(=O)C(Cc2ccccc2)n2cccc2)CC1 (stereo not drawn) 28.2 µM [inhibitor, single point]
NS(=O)(=O)c1ccc(NC(=O)c2cc(-c3cc(Cl)ccc3O)n[nH]2)cc1 11.2 µM [inhibitor, single point]
CCOC(=O)[C@]12CCC=C1N(Cc1ccc3c(c1)OCO3)C(=O)[C@H](CC(=O)NCc1cccc3ccccc13)C2 8.91 µM [inhibitor, partial curve, poor fit]
COc1ccc(NC(=O)NCCCN2CCC(Cc3ccccc3)CC2)cc1 10 µM [inhibitor, partial curve, poor fit]
CCC(C(=O)Nc1ccc2c(c1)OCCO2)n1c(=O)[nH]c2ccccc2c1=O (stereo not drawn) 10 µM [inhibitor, single point]
Cc1cc(NC(=S)N(CCN2CCCCC2)Cc2ccco2)ccc1Cl 10 µM [inhibitor, partial curve, poor fit]
O=C(CC(Sc1ccc(Br)cc1)C(=O)O)c1ccc(F)cc1 (stereo not drawn) 28.2 µM [inhibitor, single point]
CCCCOc1ccc(C(=O)N/C(=C/C=C/c2ccccc2)C(=O)N2CCOCC2)cc1 28.2 µM [inhibitor, single point]
CCNC(=O)C(=O)Nc1ccc2c(c1)N(S(=O)(=O)c1cccs1)CCC2 10 µM [inhibitor, single point]
c1ccc2c(c1)CCN(c1ncnc3c1[nH]c1ccccc13)C2 28.2 µM [inhibitor, single point]
Cc1ccc(NC(=O)CSc2nc3nc(C)c(Br)cc3[nH]2)cc1F 28.2 µM [inhibitor, single point]
Nc1ccc(O)cc1C(=O)OCC(=O)c1ccc(C2CCCCC2)cc1 1.78 µM [inhibitor, partial curve, poor fit]
CN(Cc1ccccc1)Cc1ccccc1C(O)c1ccccc1 (stereo not drawn) 11.2 µM [inhibitor, single point]
CCN(CC)S(=O)(=O)c1ccc(-c2cc(C(=O)OC)sc2C(F)(F)F)cc1 11.2 µM [inhibitor, partial curve]
O=C(CN1C(=O)NC2(CCOc3ccccc32)C1=O)c1ccc(Cl)cc1 (stereo not drawn) 12.6 µM [inhibitor, single point]
COc1ccc(Cl)cc1NCCC(O)c1ccc(F)cc1 (stereo not drawn) 10 µM [inhibitor, partial curve, poor fit]
Oc1ccc(/C=N/n2cnn(Cc3ccccc3Cl)c2=S)c(O)c1 25.1 µM [inhibitor, single point]
Cc1[nH]n(C2=NCCS2)c(=O)c1N=Nc1cccc(C(F)(F)F)c1 3.16 µM [inhibitor, full curve, poor fit]
O=C(NCc1cccc(Br)c1)C1CC(c2ccccc2[N+](=O)[O-])=NO1 (stereo not drawn) 12.6 µM [inhibitor, partial curve, poor fit]
CCCCn1nnnc1C(c1cccc2ccccc12)N1CCN(C/C=C/c2ccccc2)CC1 (stereo not drawn) 28.2 µM [inhibitor, single point]
CN(CC(=O)Nc1cccc(F)c1)C(=O)CC1CCCCC1 28.2 µM [inhibitor, single point]
Cc1ccc(C(=O)c2cnc3ccccc3c2-c2ccccc2)cc1 2.51 µM [inhibitor, full curve, poor fit]
CCOc1ccc(CN(C)CC(=O)Nc2ccc([N+](=O)[O-])cc2Cl)cc1 5.01 µM [inhibitor, partial curve, poor fit]
CC(C)CCNC(=O)CN(C(=O)CCC(=O)Nc1ccccn1)c1ccc2c(c1)OCCO2 28.2 µM [inhibitor, single point]
O=C(NCc1ccccc1F)C1CCCN(C(=O)Nc2ccc(F)cc2)C1 (stereo not drawn) 11.2 µM [inhibitor, partial curve, poor fit]
C=C(C)CNC(=S)N/N=C(\C)c1ccc(Cl)s1 3.16 µM [inhibitor, full curve, poor fit]
NNC(=S)NCc1ccco1 11.2 µM [inhibitor, partial curve, poor fit]
O=C(CCNC(=O)c1ccccc1Cl)Nc1cc(C(F)(F)F)ccc1N1CCCC1 20 µM [inhibitor, single point]
CC(C)CCOc1ccc(CO[C@@H]2[C@H]3OC(C)(C)O[C@H]3O[C@@H]2C(O)CO)cc1 (stereo partly drawn) 28.2 µM [inhibitor, single point]
CC1(C(=O)NCc2ccc(F)c(F)c2)Cc2c(-c3ccccc3)ccnc2O1 (stereo not drawn) 8.91 µM [inhibitor, partial curve, poor fit]
Cc1ccc(-c2cc([C@H]3[C@@H]4C=CCC[C@@]4(C)C(=O)N3Cc3ccccc3)ccc2F)cc1 7.94 µM [inhibitor, partial curve, poor fit]
Cc1cccc(NC(=O)c2ccc(S(=O)(=O)N3CCCCCC3)cc2)n1 14.1 µM [inhibitor, partial curve, poor fit]
COc1ccc(-c2cc3nc(C)n(N)c(=O)c3s2)cc1 0.891 µM [inhibitor, full curve, poor fit]
CCOc1cc(/C=C/c2nc3ccccc3s2)ccc1OCC(=O)N1CCOCC1 12.6 µM [inhibitor, single point]
CCN(CC)C(=O)Cn1cc(S(=O)(=O)CC(=O)NCc2ccc(F)cc2)c2ccccc21 4.47 µM [inhibitor, partial curve, poor fit]

Activity change, negative = inhibition, inactive:
OC1(c2ccc(F)cc2)CCN(Cc2cccnc2)CC1 1.35%
N#Cc1c(N)nc2c(c1-c1ccccc1)CCC2 -0.425%
Cc1ccc(C(=O)NCCc2ccncc2)cc1 -15.7%
C=CCSc1nnc(NC(=O)c2ccc(S(=O)(=O)NCC3CCCO3)cc2)s1 (stereo not drawn) 0%
Cc1ccc(S(=O)(=O)NCCc2nnc3ccc(N4CCOCC4)nn23)cc1 6.34%
CCCCCCC(NC(=O)c1ccc(C)cc1)C(=O)O (stereo not drawn) 15.4%
CN1C2CCC1/C(=C\c1ccc(F)cc1)C(=O)/C2=C/c1ccc(F)cc1 2.22%
COc1cc(-c2noc(-c3cccs3)n2)cc(OC)c1OC 24%
CCOC(=O)CSc1nc2cc3c(cc2c(=O)n1CCCCCC(=O)NCc1ccc(OC)cc1)OCO3 0.24%
CC(=O)Nc1ccc2oc(-c3cc(F)c(F)cc3Cl)nc2c1 -2.88%
CCc1cccc(NC(=O)CCNS(=O)(=O)c2ccc3c(c2)CCN3C(C)=O)c1 2.31%
O=[N+]([O-])c1ccc(/C=N/NC(=S)Nc2ccccc2F)o1 4.25%
CCOC(=O)c1sc(N2C(=O)c3oc4ccc(F)cc4c(=O)c3C2c2ccc(O)cc2)nc1C (stereo not drawn) 15.2%
